The supplement of paper PMC8728848
The other results are listed elsewhere or left out.

Assays:
Experiment in all cases: glycan array binding signal (z-score within array); higher = stronger binding
Conditions in all cases: glycan notation: IUPAC condensed, linker removed
[1] = molecular target: Neu5Ac(a2-3)Gal6S(b1-4)[Fuc(a1-3)]GlcNAc
How it was run: (§1)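 Glycan array binding is given as a within-array Z-score, which can be read as non-binding when negative. The arrays, 3228 of them, came from the Consortium for Functional Glycomics database and were retained only where the protein sequence was available. Z-scores were averaged across arrays of the same protein sequence at different concentrations or buffers and across linkers.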

Neu5Ac(a2-3)GalNAc = molecular target: Neu5Ac(a2-3)GalNAc
How it was run: as §1

[2] = molecular target: Neu5Ac(a2-3)GalNAc(b1-4)GlcNAc
How it was run: as §1

[3] = molecular target: Neu5Ac(a2-3)[GalNAc(b1-4)]Gal(b1-4)Glc
How it was run: as §1

[4] = molecular target: Neu5Ac(a2-3)[GalNAc(b1-4)]Gal(b1-4)GlcNAc
How it was run: as §1

[5] = molecular target: Neu5Ac(a2-3)[GalNAc(b1-4)]Gal(b1-4)GlcNAc(b1-3)GalNAc
How it was run: as §1

[6] = molecular target: Neu5Ac(a2-3)[Neu5Ac(a2-6)]GalNAc
How it was run: as §1

Neu5Ac(a2-6)Gal = molecular target: Neu5Ac(a2-6)Gal
How it was run: as §1

[7] = molecular target: Neu5Ac(a2-6)Gal(b1-3)GlcNAc(b1-3)[Gal(b1-4)GlcNAc(b1-6)]Gal(b1-4)Glc
How it was run: as §1

Neu5Ac(a2-6)Gal(b1-4)Glc = molecular target: Neu5Ac(a2-6)Gal(b1-4)Glc
How it was run: as §1

[8] = molecular target: Neu5Ac(a2-6)Gal(b1-4)GlcNAc
How it was run: as §1

[9] = molecular target: Neu5Ac(a2-6)Gal(b1-4)GlcNAc(b1-2)Man
How it was run: as §1

[10] = molecular target: Neu5Ac(a2-6)Gal(b1-4)GlcNAc(b1-2)Man(a1-3)Man(b1-4)GlcNAc(b1-4)GlcNAc
How it was run: as §1

[11] = molecular target: Neu5Ac(a2-6)Gal(b1-4)GlcNAc(b1-2)Man(a1-3)[Gal(b1-4)GlcNAc(b1-2)Man(a1-6)]Man(b1-4)GlcNAc(b1-4)GlcNAc
How it was run: as §1

[12] = molecular target: Neu5Ac(a2-6)Gal(b1-4)GlcNAc(b1-2)Man(a1-3)[GlcNAc(b1-2)Man(a1-6)]Man(b1-4)GlcNAc(b1-4)GlcNAc
How it was run: as §1

[13] = molecular target: Neu5Ac(a2-6)Gal(b1-4)GlcNAc(b1-2)Man(a1-3)[GlcNAc(b1-4)][Neu5Ac(a2-6)Gal(b1-4)GlcNAc(b1-2)Man(a1-6)]Man(b1-4)GlcNAc(b1-4)GlcNAc
How it was run: as §1

[14] = molecular target: Neu5Ac(a2-6)Gal(b1-4)GlcNAc(b1-2)Man(a1-3)[Man(a1-6)]Man(b1-4)GlcNAc(b1-4)GlcNAc
How it was run: as §1

[15] = molecular target: Neu5Ac(a2-6)Gal(b1-4)GlcNAc(b1-2)Man(a1-3)[Neu5Ac(a2-3)Gal(b1-4)GlcNAc(b1-2)Man(a1-6)]Man(b1-4)GlcNAc(b1-4)GlcNAc
How it was run: as §1

[16] = molecular target: Neu5Ac(a2-6)Gal(b1-4)GlcNAc(b1-2)Man(a1-3)[Neu5Ac(a2-6)Gal(b1-4)GlcNAc(b1-2)Man(a1-6)]Man(b1-4)GlcNAc(b1-4)GlcNAc
How it was run: as §1

[17] = molecular target: Neu5Ac(a2-6)Gal(b1-4)GlcNAc(b1-2)Man(a1-3)[Neu5Ac(a2-6)Gal(b1-4)GlcNAc(b1-2)Man(a1-6)]Man(b1-4)GlcNAc(b1-4)[Fuc(a1-6)]GlcNAc
How it was run: as §1

[18] = molecular target: Neu5Ac(a2-6)Gal(b1-4)GlcNAc(b1-2)Man(a1-6)Man(b1-4)GlcNAc(b1-4)GlcNAc
How it was run: as §1

[19] = molecular target: Neu5Ac(a2-6)Gal(b1-4)GlcNAc(b1-2)Man(a1-6)[Gal(b1-4)GlcNAc(b1-2)Man(a1-3)]Man(b1-4)GlcNAc(b1-4)GlcNAc
How it was run: as §1

[20] = molecular target: Neu5Ac(a2-6)Gal(b1-4)GlcNAc(b1-2)Man(a1-6)[GlcNAc(b1-2)Man(a1-3)]Man(b1-4)GlcNAc(b1-4)GlcNAc
How it was run: as §1

[21] = molecular target: Neu5Ac(a2-6)Gal(b1-4)GlcNAc(b1-2)Man(a1-6)[Man(a1-3)]Man(b1-4)GlcNAc(b1-4)GlcNAc
How it was run: as §1

[22] = molecular target: Neu5Ac(a2-6)Gal(b1-4)GlcNAc(b1-2)[Neu5Ac(a2-6)Gal(b1-4)GlcNAc(b1-4)]Man(a1-3)[GlcNAc(b1-4)][Neu5Ac(a2-6)Gal(b1-4)GlcNAc(b1-2)[Neu5Ac(a2-6)Gal(b1-4)GlcNAc(b1-6)]Man(a1-6)]Man(b1-4)GlcNAc(b1-4)GlcNAc
How it was run: as §1

[23] = molecular target: Neu5Ac(a2-6)Gal(b1-4)GlcNAc(b1-2)[Neu5Ac(a2-6)Gal(b1-4)GlcNAc(b1-4)]Man(a1-3)[GlcNAc(b1-4)][Neu5Ac(a2-6)Gal(b1-4)GlcNAc(b1-4)Man(a1-6)]Man(b1-4)GlcNAc(b1-4)GlcNAc
How it was run: as §1

[24] = molecular target: Neu5Ac(a2-6)Gal(b1-4)GlcNAc(b1-2)[Neu5Ac(a2-6)Gal(b1-4)GlcNAc(b1-6)]Man(a1-6)[Neu5Ac(a2-6)Gal(b1-4)GlcNAc(b1-2)Man(a1-3)][GlcNAc(b1-4)]Man(b1-4)GlcNAc(b1-4)GlcNAc
How it was run: as §1

[25] = molecular target: Neu5Ac(a2-6)Gal(b1-4)GlcNAc(b1-3)Gal(b1-3)GlcNAc
How it was run: as §1

[26] = molecular target: Neu5Ac(a2-6)Gal(b1-4)GlcNAc(b1-3)Gal(b1-4)GlcNAc
How it was run: as §1

[27] = molecular target: Neu5Ac(a2-6)Gal(b1-4)GlcNAc(b1-3)Gal(b1-4)GlcNAc(b1-2)Man(a1-3)[Neu5Ac(a2-6)Gal(b1-4)GlcNAc(b1-3)Gal(b1-4)GlcNAc(b1-2)Man(a1-6)]GalNAc
How it was run: as §1

[28] = molecular target: Neu5Ac(a2-6)Gal(b1-4)GlcNAc(b1-3)Gal(b1-4)GlcNAc(b1-3)Gal(b1-4)GlcNAc
How it was run: as §1

[29] = molecular target: Neu5Ac(a2-6)Gal(b1-4)GlcNAc(b1-3)Gal(b1-4)GlcNAc(b1-3)Gal(b1-4)GlcNAc(b1-2)Man(a1-3)[Neu5Ac(a2-6)Gal(b1-4)GlcNAc(b1-3)Gal(b1-4)GlcNAc(b1-3)Gal(b1-4)GlcNAc(b1-2)Man(a1-6)]GalNAc
How it was run: as §1

[30] = molecular target: Neu5Ac(a2-6)Gal(b1-4)GlcNAc(b1-3)Gal(b1-4)GlcNAc(b1-3)GalNAc
How it was run: as §1

[31] = molecular target: Neu5Ac(a2-6)Gal(b1-4)GlcNAc(b1-3)Gal(b1-4)GlcNAc(b1-3)[Neu5Ac(a2-6)Gal(b1-4)GlcNAc(b1-3)Gal(b1-4)GlcNAc(b1-6)]GalNAc
How it was run: as §1

[32] = molecular target: Neu5Ac(a2-6)Gal(b1-4)GlcNAc(b1-3)Gal(b1-4)GlcNAc(b1-6)[Gal(b1-3)]GalNAc
How it was run: as §1

[33] = molecular target: Neu5Ac(a2-6)Gal(b1-4)GlcNAc(b1-3)Gal(b1-4)[Fuc(a1-3)]GlcNAc(b1-3)Gal(b1-4)[Fuc(a1-3)]GlcNAc
How it was run: as §1

[34] = molecular target: Neu5Ac(a2-6)Gal(b1-4)GlcNAc(b1-3)GalNAc
How it was run: as §1

[35] = molecular target: Neu5Ac(a2-6)Gal(b1-4)GlcNAc(b1-3)[Neu5Ac(a2-6)Gal(b1-4)GlcNAc(b1-6)]GalNAc
How it was run: as §1

[36] = molecular target: Neu5Ac(a2-6)Gal(b1-4)GlcNAc(b1-6)GalNAc
How it was run: as §1

[37] = molecular target: Neu5Ac(a2-6)Gal(b1-4)GlcNAc(b1-6)[Gal(b1-3)GlcNAc(b1-3)]Gal(b1-4)Glc
How it was run: as §1

[38] = molecular target: Neu5Ac(a2-6)Gal(b1-4)GlcNAc(b1-6)[Gal(b1-3)]GalNAc
How it was run: as §1

[39] = molecular target: Neu5Ac(a2-6)Gal(b1-4)GlcNAc6S
How it was run: as §1

Neu5Ac(a2-6)GalNAc = molecular target: Neu5Ac(a2-6)GalNAc
How it was run: as §1

[40] = molecular target: Neu5Ac(a2-6)GalNAc(b1-4)GlcNAc
How it was run: as §1

[41] = molecular target: Neu5Ac(a2-6)GalNAc(b1-4)GlcNAc6S
How it was run: as §1

B1: AT1G73650(15) (Arabidopsis thaliana), F4HRY1 (protein)
chain: MGTVLDSHFLALTAIVTVIYQFIFFVITALFKFDQVTDFAGSTNFVILAVLTLVLKASWHFRQIVLTLLVVVWGLRLGIFLLMETRILQWGEDRRFDEQRGNIVRLIIFWTLQAVWVWTVSLPLTLVNASDGGGSLKPADVIGWTMETWVFGFLIEAAADQQKLSFKNSPENRGKWCDVGVWKYSRHPNYFGEMETLLWWGIFVAASPVLEGAEYLVIFGPLFLTLLLLFVSGIPLLEASADKKHGNSGAYRSYKKTTSPLILFPRGVYGNLPGWFKTVFLFEFPFYSRNLPQEGRLQNSKEKEVKDD
glycan array binding signal (z-score) [1]: -0.428
glycan array binding signal (z-score) (Neu5Ac(a2-3)GalNAc): -0.452
glycan array binding signal (z-score) [2]: -0.772
glycan array binding signal (z-score) [3]: -0.718
glycan array binding signal (z-score) [4]: -0.411
glycan array binding signal (z-score) [5]: 0.584
glycan array binding signal (z-score) [6]: 1.81
glycan array binding signal (z-score) (Neu5Ac(a2-6)Gal): -0.58
glycan array binding signal (z-score) [7]: -0.536
glycan array binding signal (z-score) (Neu5Ac(a2-6)Gal(b1-4)Glc): -0.604
glycan array binding signal (z-score) [8]: -0.328
glycan array binding signal (z-score) [9]: -0.499
glycan array binding signal (z-score) [10]: -0.274
glycan array binding signal (z-score) [11]: -0.237
glycan array binding signal (z-score) [12]: -0.496
glycan array binding signal (z-score) [13]: -0.593
glycan array binding signal (z-score) [14]: 0
glycan array binding signal (z-score) [15]: -0.535
glycan array binding signal (z-score) [16]: 1.72
glycan array binding signal (z-score) [17]: -0.34
glycan array binding signal (z-score) [18]: -0.571
glycan array binding signal (z-score) [19]: -0.282
glycan array binding signal (z-score) [20]: -0.513
glycan array binding signal (z-score) [21]: -0.526
glycan array binding signal (z-score) [22]: -0.629
glycan array binding signal (z-score) [23]: -0.379
glycan array binding signal (z-score) [24]: -0.444
glycan array binding signal (z-score) [25]: 0.074
glycan array binding signal (z-score) [26]: -0.696
glycan array binding signal (z-score) [27]: -0.573
glycan array binding signal (z-score) [28]: -0.466
glycan array binding signal (z-score) [29]: 0.655
glycan array binding signal (z-score) [30]: -0.577
glycan array binding signal (z-score) [31]: -0.185
glycan array binding signal (z-score) [32]: -0.446
glycan array binding signal (z-score) [33]: 1.33
glycan array binding signal (z-score) [34]: -0.426
glycan array binding signal (z-score) [35]: -0.508
glycan array binding signal (z-score) [36]: 7.33
glycan array binding signal (z-score) [37]: -0.645
glycan array binding signal (z-score) [38]: 1.48
glycan array binding signal (z-score) [39]: -0.617
glycan array binding signal (z-score) (Neu5Ac(a2-6)GalNAc): -0.573
glycan array binding signal (z-score) [40]: -0.702
glycan array binding signal (z-score) [41]: -0.294
